Assay results reported in PubChem BioAssay AID1645887 (National Center for Advancing Translational Sciences (NCATS), 2021).
Where “and” joins values, the source holds several entries; their conditions need not be identical. Identical values can stand only once. The campaign covered roughly 16,000 compounds. About 40 (0.2%) were called active. Inconclusive results (about 1%) are left out. Calls come from the whole dose curve; as a rule, active = well fitted activation curve with a large enough effect; inconclusive = small, poorly fitted or top-dose-only effect, or another doubt; inactive = no such curve, though single readings can be large or run the other way. The list shows a part of the results.

Target: Rap guanine nucleotide exchange factor 4 (Homo sapiens) (UniProt Q8WZA2)
UniProt Q8WZA2, sequence (Q8WZA2 whole entry, looked up): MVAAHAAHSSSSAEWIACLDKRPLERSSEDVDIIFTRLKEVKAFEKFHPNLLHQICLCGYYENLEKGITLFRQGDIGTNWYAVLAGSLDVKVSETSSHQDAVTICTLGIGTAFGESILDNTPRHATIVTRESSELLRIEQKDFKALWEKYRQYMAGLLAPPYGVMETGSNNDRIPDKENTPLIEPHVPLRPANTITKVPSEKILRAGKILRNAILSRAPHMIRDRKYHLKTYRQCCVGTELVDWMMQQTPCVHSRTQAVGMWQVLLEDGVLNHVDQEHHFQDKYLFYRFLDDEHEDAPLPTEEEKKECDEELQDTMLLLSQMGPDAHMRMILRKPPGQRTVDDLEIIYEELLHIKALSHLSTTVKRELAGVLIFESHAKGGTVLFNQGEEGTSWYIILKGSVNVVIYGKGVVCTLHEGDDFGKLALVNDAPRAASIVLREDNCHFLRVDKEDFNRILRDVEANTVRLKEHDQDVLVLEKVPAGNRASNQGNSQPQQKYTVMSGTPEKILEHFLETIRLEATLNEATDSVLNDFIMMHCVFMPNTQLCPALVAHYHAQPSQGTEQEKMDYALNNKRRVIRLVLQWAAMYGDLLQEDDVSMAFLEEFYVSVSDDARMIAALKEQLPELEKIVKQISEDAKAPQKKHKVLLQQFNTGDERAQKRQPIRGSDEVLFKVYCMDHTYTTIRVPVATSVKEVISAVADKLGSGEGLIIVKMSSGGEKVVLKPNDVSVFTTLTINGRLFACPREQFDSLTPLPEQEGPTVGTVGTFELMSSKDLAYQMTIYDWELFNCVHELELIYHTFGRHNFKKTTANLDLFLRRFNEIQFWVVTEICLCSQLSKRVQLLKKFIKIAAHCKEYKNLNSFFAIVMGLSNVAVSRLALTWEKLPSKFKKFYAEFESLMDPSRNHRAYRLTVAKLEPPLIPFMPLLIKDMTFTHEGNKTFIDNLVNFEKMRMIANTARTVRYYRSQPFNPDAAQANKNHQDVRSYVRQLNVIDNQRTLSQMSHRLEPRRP
Test: Validation qHTS for agonist of cAMP-regulated guanine nucleotide exchange factor 4 (EPAC2);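 note: exchange makes BODIPY-GDP fluorescence drop when released from Rap1B; series mostly up to about 150 µM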
Settings: EPAC2 Rap1B BODIPY-GDP exchange, fluorescence; activation: hits give high values
How it was run: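 Signal normalized against 6.5 mM cAMP as agonist control. Mix of EPAC2 (100 nM), RAP1B-BODIPY-GDP (250 nM) and GDP (50 uM) was read kinetically at 480/540 nm, every 5 min over 30 min, after 5 min room-temperature incubation with compound.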
% is set by controls: 0 for no effect and ±100 for the full control effect.

activation, inactive:
COc1cc(=O)n2c(c1C(=O)NCc1ccco1)CCN(Cc1ccc(F)cc1Cl)CC2 -0.201%
CCN(CC)c1ccccc1/C=C/[n+]1ccc(CCCCI)c2ccccc21 -41.3%
CC(C)(C)NCC(O)c1cc(O)cc(O)c1 (configuration not stated) 7.45% and 11.3% and 10.6%
NS(=O)(=O)c1cc2c(cc1Cl)NC(CC1CCCC1)NS2(=O)=O (configuration not stated) -8.89%
Cc1ccc(C)c(CN2C[C@H](Sc3nc4ccccc4[nH]3)C[C@H]2C(=O)N2CCCN(C)CC2)c1 10.1%
O=C(O)C1CC[C@@](C(=O)O)(c2ccccc2)c2ccccc21 (some centres not stated) 0.368%
COc1cc(/C(C)=C/c2ccccc2)c2c(c1)oc1ccccc12 -19%
COc1ccc(-c2nc3cnc(N4CCNCC4)nc3n(CCc3ccccc3)c2=O)cc1 -0.925%
C[C@@H]1CN(Cc2ccc3c(c2)CN(C(=O)CCc2nc4ccc(F)cc4[nH]2)CCO3)C[C@H](C)O1 0.162%
CC(C)[C@H](N)C(=O)OCC(CO)OCn1cnc2c(=O)[nH]c(N)nc21 (some centres not stated) -2.58%
CCC1COCCS(=O)(=O)N1Cc1ccccc1 (configuration not stated) -25.9%
COCC(=O)N1CCC2(CC1)CCN(c1cccc(-c3ccccc3)c1)CC2 4.89%
COc1ccc(F)c(CN2CCOc3ccc(CN4CCC(Oc5cccnc5)CC4)cc3C2)c1 -7.47%
CCC1CN(CCNC(=O)C(C)(C)O)Cc2cc(OC)ccc2O1 (configuration not stated) -6.09%
C=CC(C)(O)CCCC(C)CCCC(C)CCCC(C)C (configuration not stated) -34.6%
OC[C@H]1NC[C@H](O)[C@@H](O)[C@H]1O -2.39%
CN1CCC[C@@H]1CCO[C@](C)(c1ccccc1)c1ccc(Cl)cc1 -41.4% and -4.86%
Clc1cccc[n+]1CCCCCC[n+]1ccccc1Cl -33.3%
CCOc1ccc(NC(C)=O)cc1 -4.28% and -8.11%
COc1cc2ncnc(Nc3ccc(F)c(Cl)c3)c2cc1OCCCN1CCOCC1 -11.9%
CC(=O)NCCNc1nc(-c2cccnc2)nc2ccccc12 -2.17%
Cc1cc2c(c(-c3nc4ccccc4s3)c1)OC(CNC(=O)c1occc1C)C2 (configuration not stated) -3.65%
Nc1cccc2c(N)cccc12 -5.3%
Cc1cc(=O)[nH]c2ccc([N+](=O)[O-])cc12 -9.2%
COC(=O)[C@@H]1CCCN1C(=O)c1c(OC)cc(=O)n2c1CCN(Cc1ccc(C)o1)CC2 2.82%
c1ccc(Nc2ncnc3ccc(-c4ccc5c(c4)OCO5)cc23)cc1 -27.9%
COc1ccc(-n2c(=O)c(CCc3ccccc3)nc3cnc(OC)nc32)cc1 -13.6%
CCCCCCCCN1[C@@H](CC(=O)OC)c2ccc(/C=C/C(=O)OC)cc2S1(=O)=O -11.9%
CC(C(=O)O)c1ccc(C(=O)c2cccs2)cc1 (configuration not stated) 5.85% and -16.1%
CN(CC1COCCO1)C(=O)c1cnn(-c2nccc(-c3ccccc3C(F)(F)F)n2)c1C1CC1 (configuration not stated) -13.1%
CCCN1CCC(=O)N([C@H](CSc2ccccc2)c2ccccc2)CC1 -10.4%
O=C(CCc1cccnc1)NCC1Cc2cccc(-c3ncccn3)c2O1 (configuration not stated) -3.65%
CN(Cc1ccco1)c1ncncc1-c1cccc(C#N)c1 2.43%
COc1ccc(/C=C/C(=O)c2ccc(OC)cc2OC)cc1 11.9%
COc1ccccc1-c1ccc2ncnc(NCc3ccccc3)c2c1 -0.437%
O=C(O)c1cccnc1C(=O)O 7.75% and -12.5% and -13.3%
O=C1CCC(=O)N1CO -16.5%
CCCCC[C@H](O)/C=C/[C@H]1[C@H](O)CC(=O)[C@@H]1CCCCCCC(=O)O 6.8% and 3.01%
CC(=O)Nc1ccc(C(=O)O)cc1 6.38%
CCC(=O)NCCC1CCc2ccc3c(c21)CCO3 (configuration not stated) 3.54%
Oc1ccc(C2Oc3cc(O)cc(O)c3CC2O)cc1 (configuration not stated) -2.91%
COc1ccccc1OC(=O)Oc1ccccc1OC -17.2%
COc1cccc(Cn2c(=O)cnc3cncnc32)c1 8.5%
O=C(NCC1(N2CCOCC2)CCCC1)c1cnn(-c2nccc(-c3cccs3)n2)c1C1CC1 -31.5%
Cn1c(=O)cnc2cnc(Oc3ccccc3)nc21 3.31%
O=c1[nH]cnc2c1ncn2C1CC(O)C(CO)O1 (configuration not stated) -7.74%
c1cn(-c2cc(-c3ccc4c(c3)OCO4)ncn2)cn1 -17.3%
COc1ccc(-c2cc(=O)c3c(O)c(OC)c(O[C@@H]4OC(COC5OC(C)C(O)C(O)[C@@H]5O)C(O)C(O)C4O)cc3o2)cc1 (some centres not stated) -7.87%
CCN1CCC[C@H]1CNC(=O)c1c(O)c(Cl)cc(Cl)c1OC -10.2% and -16.6% and -19.1%
O=C(c1ccco1)N1CCC2(CC1)CCN(c1ccc(-c3ccccc3)cc1)CC2 -0.171%
COc1ccc(OC)c(-c2cc(Cl)c3c(c2)CC(CNC(=O)C(C)N2CCOCC2)O3)c1 (configuration not stated) -13.4%
Cc1ccccc1CN1Cc2cccc3c2[C@H](C=CC3)CC1=O -21.1%
CCOC(=O)N(C(=O)c1ccccc1)c1ccccc1 -31.5%
COc1ccc(C(=O)Nc2ccccc2CCC2CCCCN2C)cc1 (configuration not stated) 7.33%
CN(C)c1ccc(-c2nccc(NCc3ccccc3)n2)cc1 -13.3%
COc1cccc(CN2C(=O)NC(C)(C3CCN(Cc4cc(Cl)ccc4O)CC3)C2=O)c1OC (configuration not stated) 0.915%
CN1CCN(c2ncc3nc(-c4ccccc4)c(=O)n(C4CC4)c3n2)CC1 5.59%
